Test results published in patent publication US20240042021A1 (FLAGSHIP PIONEERING INNOVATIONS VII, published 2024).

T1: human IL-10 Receptor (hIL-10R) (human, UniProt Q13651 22-578; Q08334 20-325)
T1 sequence 1: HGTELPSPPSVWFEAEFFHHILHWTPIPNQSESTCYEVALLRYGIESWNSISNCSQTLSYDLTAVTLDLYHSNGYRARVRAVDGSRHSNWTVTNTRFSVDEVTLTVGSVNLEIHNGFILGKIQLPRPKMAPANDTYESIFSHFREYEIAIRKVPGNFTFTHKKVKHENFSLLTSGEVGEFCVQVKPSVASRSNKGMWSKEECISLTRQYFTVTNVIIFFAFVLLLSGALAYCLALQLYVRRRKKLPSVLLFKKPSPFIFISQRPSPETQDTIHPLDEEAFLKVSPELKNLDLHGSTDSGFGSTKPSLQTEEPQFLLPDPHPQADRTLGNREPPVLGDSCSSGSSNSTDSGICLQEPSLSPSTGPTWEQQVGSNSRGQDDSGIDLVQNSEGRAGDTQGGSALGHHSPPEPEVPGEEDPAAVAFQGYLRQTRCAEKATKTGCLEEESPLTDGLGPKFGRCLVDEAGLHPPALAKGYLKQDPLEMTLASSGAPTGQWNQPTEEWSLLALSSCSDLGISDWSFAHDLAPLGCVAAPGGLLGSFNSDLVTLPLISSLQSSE
T1 sequence 2: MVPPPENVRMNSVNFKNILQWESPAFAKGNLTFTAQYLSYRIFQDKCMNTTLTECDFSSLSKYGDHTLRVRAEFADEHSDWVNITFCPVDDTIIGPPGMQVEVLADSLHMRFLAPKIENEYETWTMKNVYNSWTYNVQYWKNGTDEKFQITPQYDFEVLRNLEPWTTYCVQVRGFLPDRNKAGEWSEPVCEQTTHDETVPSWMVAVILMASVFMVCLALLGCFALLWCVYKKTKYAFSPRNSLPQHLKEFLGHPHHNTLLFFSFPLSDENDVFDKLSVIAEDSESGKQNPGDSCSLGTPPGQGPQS


Target: T1, human IL-10 Receptor (hIL-10R)
Experiment: cell-based or functional assay

Row | Binder | ~Average EC50 Fold Difference Relative to Reference Fc-hIL-10 [fold]
1 | Immunomodulatory fusion protein 3 (IFP-3) (Fc fusion) [not shown - human IgG4 Fc with S228P F234A L235A (EU numbers) and a few adjoining residues]GGGGGGGSGGGGSGGGGSMSNNKILVCAVIILTYTLYTDAYCVEYAESDEDRQQCSSSSNFPASLPHMLRELRAAFGKVKTFFQMKDQLNSMLLTQSLLDDFKGYLGCQALSEMIQFYLEEVMPQAENHGPDIKEHVNSLGEKLKTLRLRLRRCHRFLPCENKSKAVEQVKRVFNMLQERGVYKAMSEFDIFINYIESYMTTKM | < 1
2 | Immunomodulatory fusion protein 2 (IFP-2) (Fc fusion) [not shown - human IgG4 Fc with S228P F234A L235A (EU numbers) and a few adjoining residues]GGGGGGGSGGGGSGGGGSMARRLTVASCGSVSLLAAFAAVLLIGCQLESGEALPLGSRSADSRSVDGQRVPAPQNNYPGLLRDLRLGYEGFKQKVTDSHPDETLLGSSRLAGDLKGPLRCQALSEMIQFLLQVVLPDAENSRQDLRSQFSTLGDRITGLRQQLRRDPTVFPCESRSDGVSDLRSAYTRLGSTGAEKVLSEFDIFINYIEAYVTSV | < 1
3 | Immunomodulatory fusion protein 11 (IFP-11) (Fc fusion) [not shown - human IgG4 Fc with S228P F234A L235A (EU numbers) and a few adjoining residues]GGGGGGGSGGGGSGGGGSMRRRRSFGIVVAGAIGTLLMMAVVVFSAHEHKEVPPACDPVHGNLAGIFKELRATYASIREGLQKKDTVYYTSLFNDRVLQEMLSPMGCRVTNELMEHYLDGVLPRALHLDYDNSTLNGLHAFASSMQALYQHMLKCPALACTGKTPAWMYFLEVEHKLNPWRGTAKAAAEADLLLNYLETFLLQF | > 100
